From the supplement of paper PMC12217912
This is one part of the list. The full chains were built here from the parent and the listed change. Inactive controls read about 0.05.

B1: TEV protease; numbered along this chain (parent)
chain: MGESLFKGPRDYNPISSSICHLTNESDGHTTSLYGIGFGPFIITNKHLFRRNNGTLVVQSLHGVFKVKDTTTLQQHLVDGRDMIIIRMPKDFPPFPQKLKFREPQREERICLVTTNFQTKSMSSMVSDTSCTFPSGDGIFWKHWIQTKDGQCGSPLVSTRDGFIVGIHSASNFTNTNNYFTSVPKNFMELLTNQEAQQWVSGWRLNADSVLWGGHKVFMVKPEEPFQPVKEATQL

Variants of: B1
Test: raw area under fraction-flipped curve 0-4 h after induction (AUC4h, not background-subtracted), DNA-recorder readout of cleavage of the substrate (dimensionless); higher = more cleavage of the substrate by the protease variant
Conditions: temperature: 34 °C; time window: 0-4 h after rhamnose induction
Protocol: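 In vivo DNA recorder in E. coli TOP10(DE3) ΔrhaA at 34 °C. Each TEVp single-site mutant (parent TEVp 0) is paired with a single-site variant of the 7-mer TEVs (canonical ENLYFQ|S). The substrate sits between flexible linkers in a Bxb1-sfGFP-TEVs-SsrA fusion, so cleavage stabilises Bxb1 and speeds flipping of a recombination array, read by NGS. The value is the raw area under the fraction-flipped curve over 0-4 h after rhamnose induction (AUC4h), with ≥20 reads per time point. It is not background-subtracted; inactive controls average about 0.047.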
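Note: Bxb1 expression induced with 0.2% (w/v) L-rhamnose at OD600 near 0.5, cultures sampled hourly, flipped fraction per protease–substrate barcode pair counted by paired-end Illumina sequencing.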

| Variant | area with substrate ANLYFQS | area with substrate DNLYFQS | area with substrate HNLYFQS | area with substrate INLYFQS | area with substrate KNLYFQS | area with substrate LNLYFQS | area with substrate PNLYFQS | area with substrate TNLYFQS | area with substrate WNLYFQS | area with substrate CNLYFQS | area with substrate GNLYFQS | area with substrate RNLYFQS | area with substrate SNLYFQS | area with substrate YNLYFQS | area with substrate FNLYFQS | area with substrate NNLYFQS | area with substrate VNLYFQS | area with substrate MNLYFQS | area with substrate QNLYFQS |
| --- | --- | --- | --- | --- | --- | --- | --- | --- | --- | --- | --- | --- | --- | --- | --- | --- | --- | --- | --- |
| MGESLFKGPRDYNPISSSICHLTNESDGHTTSLYGIGFGPFIITNKHLFRRNNGTLVVQSLHGVFKVKDTTTLQQHLVDGRDMIIIRMPKDFPPFPQKLKFREPQREERICLVTTNFQHKSMSSMVSDTSCTFPSGDGIFWKHWIQTKDGQCGSPLVSTRDGFIVGIHSASNFTNTNNYFTSVPKNFMELLTNQEAQQWVSGWRLNADSVLWGGHKVFMVKPEEPFQPVKEATQL [T119H] | 0.063 | 0.0592 | 0.0676 | 0.0593 | 0.0762 | 0.0719 | 0.0901 | 0.0306 | 0.0625 | – | – | – | – | – | – | – | – | – | – |
| MGESLFKGPRDYNPISSSICHLTNESDGHTTSLYGIGFGPFIITNKHLFRRNNGTLVVQSLHGVFKVKDTTTLQQHLVDGRDMIIIRMPKDFPPFPQKLKFREPQREERICLVTTNFQTKSHSSMVSDTSCTFPSGDGIFWKHWIQTKDGQCGSPLVSTRDGFIVGIHSASNFTNTNNYFTSVPKNFMELLTNQEAQQWVSGWRLNADSVLWGGHKVFMVKPEEPFQPVKEATQL [M122H] | 0.0721 | – | 0.0707 | 0.0625 | 0.0614 | – | 0.0637 | 0.093 | 0.0555 | 0.0633 | 0.0826 | 0.0587 | 0.0593 | 0.0714 | – | – | – | – | – |
| MGESLFKGPRDYNPISSSICHLTNESDGHTTSLYGIGFGPFIITNKHLFRRNNGTLVVQSLHGVFKVKDTTTLQQHLVDGRDMIIIRMPKDFPPFPQKLKFREPQREERICLVTTNFQTKSWSSMVSDTSCTFPSGDGIFWKHWIQTKDGQCGSPLVSTRDGFIVGIHSASNFTNTNNYFTSVPKNFMELLTNQEAQQWVSGWRLNADSVLWGGHKVFMVKPEEPFQPVKEATQL [M122W] | 0.0568 | – | 0.0649 | 0.0514 | – | 0.0549 | – | 0.082 | 0.0533 | 0.0626 | 0.057 | 0.079 | – | – | 0.0773 | 0.0896 | – | – | – |
| MGESLFKGPRDYNPISSSICHLTNESDGHTTSLYGIGFGPFIITNKHLFRRNNGTLVVQSLHGVFKVKDTTTLQQHLVDGRDMIIIRMPKDFPPFPQKLKFREPQREERICLVTTNFQTKSLSSMVSDTSCTFPSGDGIFWKHWIQTKDGQCGSPLVSTRDGFIVGIHSASNFTNTNNYFTSVPKNFMELLTNQEAQQWVSGWRLNADSVLWGGHKVFMVKPEEPFQPVKEATQL [M122L] | 0.0857 | 0.0988 | 0.048 | 0.0631 | 0.0614 | – | 0.0865 | 0.067 | 0.0571 | – | – | – | 0.0797 | – | 0.072 | 0.0696 | – | – | – |
| MGESLFKGPRDYNPISSSICHLTNESDGHTTSLYGIGFGPFIITNKHLFRRNNGTLVVQSLHGVFKVKDTTTLQQHLVDGRDMIIIRMPKDFPPFPQKLKFREPQREERICLVTWNFQTKSMSSMVSDTSCTFPSGDGIFWKHWIQTKDGQCGSPLVSTRDGFIVGIHSASNFTNTNNYFTSVPKNFMELLTNQEAQQWVSGWRLNADSVLWGGHKVFMVKPEEPFQPVKEATQL [T115W] | 0.0753 | 0.0668 | – | 0.0562 | – | 0.0581 | – | 0.0766 | 0.0888 | – | 0.0756 | 0.0622 | – | 0.0645 | – | – | 0.0739 | – | – |
| MGESLFKGPRDYNPISSSICHLTNESDGHTTSLYGIGFGPFIITNKHLFRRNNGTLVVQSLHGVFKVKDTTTLQQHLVDGRDMIIIRMPKDFPPFPQKLKFREPQREERICLVTTNKQTKSMSSMVSDTSCTFPSGDGIFWKHWIQTKDGQCGSPLVSTRDGFIVGIHSASNFTNTNNYFTSVPKNFMELLTNQEAQQWVSGWRLNADSVLWGGHKVFMVKPEEPFQPVKEATQL [F117K] | 0.005 | – | 0.0774 | – | – | 0.0679 | 0.0654 | – | 0.0579 | 0.0854 | – | – | 0.057 | – | 0.059 | 0.0696 | – | – | – |
| MGESLFKGPRDYNPISSSICHLTNESDGHTTSLYGIGFGPFIITNKHLFRRNNGTLVVQSLHGVFKVKDTTTLQQHLVDGRDMIIIRMPKDFPPFPQKLKFREPQREERICLVTTNGQTKSMSSMVSDTSCTFPSGDGIFWKHWIQTKDGQCGSPLVSTRDGFIVGIHSASNFTNTNNYFTSVPKNFMELLTNQEAQQWVSGWRLNADSVLWGGHKVFMVKPEEPFQPVKEATQL [F117G] | 0.0696 | – | – | 0.0608 | 0.0768 | – | 0.0728 | – | 0.0532 | 0.0518 | 0.0554 | 0.045 | – | 0.0654 | – | 0.0668 | – | 0.08 | – |
| MGESLFKGPRDYNPISSSICHLTNESDGHTTSLYGIGFGPFIITNKHLFRRNNGTLVVQSLHGVFKVKDTTTLQQHLVDGRDMIIIRMPKDFPPFPQKLKFREPQREERICLVTTNFQTQSMSSMVSDTSCTFPSGDGIFWKHWIQTKDGQCGSPLVSTRDGFIVGIHSASNFTNTNNYFTSVPKNFMELLTNQEAQQWVSGWRLNADSVLWGGHKVFMVKPEEPFQPVKEATQL [K120Q] | 0.0403 | – | 0.0429 | 0.0648 | 0.0624 | – | 0.0662 | 0.053 | – | – | – | – | 0.0697 | 0.0646 | – | 0.0612 | 0.0645 | – | – |
| MGESLFKGPRDYNPISSSICHLTNESDGHTTSLYGIGFGPFIITNKHLFRRNNGTLVVQSLHGVFKVKDTTTLQQHLVDGRDMIIIRMPKDFPPFPQKLKFREPQREERICLVTTEFQTKSMSSMVSDTSCTFPSGDGIFWKHWIQTKDGQCGSPLVSTRDGFIVGIHSASNFTNTNNYFTSVPKNFMELLTNQEAQQWVSGWRLNADSVLWGGHKVFMVKPEEPFQPVKEATQL [N116E] | 0.0635 | 0.0837 | 0.0619 | 0.0439 | 0.0284 | 0.0675 | 0.0611 | 0.0651 | 0.0594 | – | 0.0712 | 0.079 | 0.0759 | 0.0676 | 0.0668 | 0.0585 | 0.0736 | 0.0649 | 0.0651 |
| MGESLFKGPRDYNPISSSICHLTNESDGHTTSLYGIGFGPFIITNKHLFRRNNGTLVVQSLHGVFKVKDTTTLQQHLVDGRDMIIIRMPKDFPPFPQKLKFREPQREERICLVTTKFQTKSMSSMVSDTSCTFPSGDGIFWKHWIQTKDGQCGSPLVSTRDGFIVGIHSASNFTNTNNYFTSVPKNFMELLTNQEAQQWVSGWRLNADSVLWGGHKVFMVKPEEPFQPVKEATQL [N116K] | 0.0638 | – | – | – | – | – | – | – | 0.0659 | 0.0705 | – | 0.0623 | 0.072 | 0.035 | – | – | 0.0669 | – | – |
